Here are results for 50 molecules from publication PMC6919601, “Identification of Plasmodium dipeptidyl aminopeptidase allosteric inhibitors by high throughput screening” (PLoS ONE, 2019).

The campaign covered roughly 110,000 compounds. About 230 (0.21%) showed an effect of 50% or more. This is one part of the list.
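Further: 30 min substrate incubation versus DMSO and 10 µM JCP410 controls.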

The target of this experiment is DPAP1 (Plasmodium falciparum, UniProt Q8IIJ9). Description: primary screen, percent inhibition; read by cleavage of a fluorogenic dipeptide substrate; higher = more effect of the substance. The arrangement: species or system P. falciparum D10 trophozoite lysates; single well.
DPAP1, sequence (Q8IIJ9 whole entry, looked up): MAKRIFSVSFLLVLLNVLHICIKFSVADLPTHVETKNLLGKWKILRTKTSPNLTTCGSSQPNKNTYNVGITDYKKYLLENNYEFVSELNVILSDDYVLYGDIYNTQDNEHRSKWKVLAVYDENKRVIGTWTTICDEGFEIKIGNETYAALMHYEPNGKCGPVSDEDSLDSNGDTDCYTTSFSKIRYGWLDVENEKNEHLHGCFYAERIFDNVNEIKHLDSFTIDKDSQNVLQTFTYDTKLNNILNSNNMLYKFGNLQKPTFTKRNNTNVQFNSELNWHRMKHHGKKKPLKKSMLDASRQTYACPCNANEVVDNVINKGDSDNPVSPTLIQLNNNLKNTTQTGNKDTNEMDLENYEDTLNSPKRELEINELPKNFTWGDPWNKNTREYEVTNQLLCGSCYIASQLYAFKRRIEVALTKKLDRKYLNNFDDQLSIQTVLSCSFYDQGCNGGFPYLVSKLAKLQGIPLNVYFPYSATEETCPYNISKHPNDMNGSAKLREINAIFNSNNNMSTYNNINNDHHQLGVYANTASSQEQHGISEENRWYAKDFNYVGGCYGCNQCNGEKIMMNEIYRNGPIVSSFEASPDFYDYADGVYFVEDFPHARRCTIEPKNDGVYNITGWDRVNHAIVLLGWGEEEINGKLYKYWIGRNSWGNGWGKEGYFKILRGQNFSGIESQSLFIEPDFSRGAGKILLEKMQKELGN
Turning to `C/C=C/c1ccccc1OCc1ccc(C(=O)OC)o1`, the “% Inhibition @ 10 uM” value was found to be 0.146%.

For `O=C(CN1C(=O)c2cccc3cccc(c23)C1=O)N1CCN(Cc2ccc3c(c2)OCO3)CC1`, the “% Inhibition @ 10 uM” value is reported as 4.03%.

Consider `COc1cc(C(=O)N2CCN(C(=O)c3c(OC)cccc3OC)CC2)cc(OC)c1OC`, for which the “% Inhibition @ 10 uM” value is -6.27%.

Take `CCCCN(C(=O)/C=C/c1ccccc1)C1=CC2CCC(C1)N2C` (centres unmarked): the “% Inhibition @ 10 uM” value is -0.436%.

As for `Cc1ccc(C)n1-c1nnc(N2CCC(C(=O)NC(C)c3ccccc3)CC2)s1` (centres unmarked), the “% Inhibition @ 10 uM” value came out at 1.15%.

In the case of `COc1cc2nc(S)n3nc(CCn4c(C)nc5ccccc54)nc3c2cc1OC`, the “% Inhibition @ 10 uM” value was 6.08%.

Consider `COc1ccc(OC)c(-c2c(C#N)c(N)nc3c2c(=O)nc2sccn23)c1`, for which the “% Inhibition @ 10 uM” value is 16.6%.

Turning to `Cc1ccc(CC2SC(Nc3ccccn3)=NC2=O)cc1` (centres unmarked), the “% Inhibition @ 10 uM” value is on record as -0.48%.

As to `NC1=NC(c2ccc(Cl)cc2)n2c(nc3ccccc32)N1` (centres unmarked), the “% Inhibition @ 10 uM” value is recorded as -3.43%.

Take `O=c1/c(=C/c2ccco2)sc2nncn12`: the “% Inhibition @ 10 uM” value was determined as 5.55%.

Take `CN1CCN(CCn2c(-c3ccc(Br)cc3)cn3c4ccccc4nc23)CC1`: the “% Inhibition @ 10 uM” value is 3.1%.

As for `CN1CCCN(Cc2ccc(-c3ccccc3)cc2)CC1`, the “% Inhibition @ 10 uM” value was determined as 2.47%.

`Cc1nc(CN2CCC/C2=N\C#N)n(-c2ccccc2)n1`: the “% Inhibition @ 10 uM” value worked out at 16.1%.

`COc1ccc(OC)c(C2C3=C(O)CCCC3=NC(C)=C2C(=O)Nc2ccccn2)c1` (centres unmarked): the “% Inhibition @ 10 uM” value is listed as -8.82%.

For `O=C(Cc1c(O)nc2ccccc2c1O)NC1CCCCCCC1`, the “% Inhibition @ 10 uM” value is 3.45%.

As to `CCOC(=O)c1sc(NC(N)=O)c(C#N)c1C`, the “% Inhibition @ 10 uM” value is given as -3.48%.

For `O=C1CC(c2ccc3c(c2)OCO3)c2c(n[nH]c2-c2ccc(Cl)cc2)N1` (centres unmarked), the “% Inhibition @ 10 uM” value came to 0.0719%.

In the case of `C=CCOc1ccc(/C=C2/C=C(c3ccc(C)cc3)OC2=O)cc1`, the “% Inhibition @ 10 uM” value stood at 6.58%.

Turning to `CC1CC(=O)c2c(oc3ccccc3c2=O)C1` (centres unmarked), the “% Inhibition @ 10 uM” value was 2.36%.

As to `Brc1ccc(-c2nnc(-c3ccccc3)o2)cc1`, the “% Inhibition @ 10 uM” value is reported as -5.23%.

`O=C1C(Cl)=C(N2CCN(C(=O)c3ccc(F)cc3)CC2)C(=O)c2ccccc21`: the “% Inhibition @ 10 uM” value is given as 0.147%.

As to `CCOC(=O)N1CCN(C(=O)CSc2nnc(CNC(=O)COc3ccc(Cl)cc3)o2)CC1`, the “% Inhibition @ 10 uM” value is listed as -3.39%.

Consider `CCOC(=O)c1[nH]c(C)c(C(=O)NCc2cccnc2)c1C`, for which the “% Inhibition @ 10 uM” value is 4.88%.

`COc1cc(CNc2ccccc2)ccc1OCC(=O)Nc1cccc(C)c1`: the “% Inhibition @ 10 uM” value was 1.05%.

For `O=C(CCCn1sc2ccccc2c1=O)N1CCN(c2ccccn2)CC1`, the “% Inhibition @ 10 uM” value stood at 4.26%.

Take `CCOC(=O)c1c(-c2ccc(OCC)cc2)csc1NC(=O)C1CCCCC1C(=O)O` (centres unmarked): the “% Inhibition @ 10 uM” value is given as -1.1%.

`CSc1ccc(CN2CCN(c3ccc(C(C)=O)cc3)CC2)cc1`: the “% Inhibition @ 10 uM” value was found to be 2.26%.

For the molecule `Cn1ncc(Br)c1C(=O)NC1C2CC3CC(C2)CC1C3` (centres unmarked), the “% Inhibition @ 10 uM” value was -2.28%.

Regarding `O=C(NCc1cccc(Cl)c1)C1CCCN(c2nnc(-n3cccc3)s2)C1` (centres unmarked), the “% Inhibition @ 10 uM” value is reported as -4.04%.

Turning to `O=C(Nc1nnc(-c2ccccc2)s1)C1CCCCC1`, the “% Inhibition @ 10 uM” value is reported as 1.24%.

In the case of `O=C1OC(c2ccccc2F)=N/C1=C\c1cccs1`, the “% Inhibition @ 10 uM” value was -8.36%.

On to `CN(CCCNS(=O)(=O)c1ccc(-c2cc(C(F)(F)F)no2)s1)C1CCCCC1`, for which the “% Inhibition @ 10 uM” value came out at 0.359%.

As to `Cc1cc(NC(=O)CSc2nc3ncccc3c(=O)n2Cc2ccccc2)[nH]n1`, the “% Inhibition @ 10 uM” value is given as -3.44%.

For the molecule `O=C(Nc1ccc(-c2csc(-c3ccccc3)n2)cc1)c1cccnc1`, the “% Inhibition @ 10 uM” value came to 3.17%.

`CN1CCc2c(sc(N)c2C#N)C1`: the “% Inhibition @ 10 uM” value is 0.238%.

`COc1ccc(OC)c2c(N)c(C#N)c(C(F)(F)C(F)(F)F)nc12`: the “% Inhibition @ 10 uM” value came out at 3.47%.

As to `CNC(=O)c1ccc(Cn2c(SCc3ccccc3)nc3cccnc32)cc1`, the “% Inhibition @ 10 uM” value came out at 0.693%.

In the case of `COc1cc(CCNc2cnnc3c(Cl)cccc23)cc(OC)c1`, the “% Inhibition @ 10 uM” value was -5.76%.

For `COc1cc(F)c(C[C@H](NC(=O)c2ccc(-c3ccccc3Cl)cc2)C(=O)NCC#N)c(F)c1`, the “% Inhibition @ 10 uM” value is -0.207%.

On to `CCOc1ccc(NC(=O)c2ccc3c(c2N)C(=O)c2ccccc2C3=O)cc1`, for which the “% Inhibition @ 10 uM” value is recorded as -0.693%.

Turning to `CCCN1CCC(NCc2ccc(Cl)cc2Cl)CC1`, the “% Inhibition @ 10 uM” value was determined as 1.88%.

For `COc1ccc(OC)c(NC(=O)CC2NCCNC2=O)c1` (centres unmarked), the “% Inhibition @ 10 uM” value is 0.907%.

On to `CC(c1ccccc1)C(CC(=O)O)C(=O)NCc1ccccc1` (centres unmarked), for which the “% Inhibition @ 10 uM” value was determined as 4.41%.

On to `COc1cc(NS(=O)(=O)c2ccc(NC(=O)Nc3ccc(Cl)cc3)cc2)ncn1`, for which the “% Inhibition @ 10 uM” value worked out at 0.431%.

For the molecule `N#Cc1ccc(-c2ccc(/C=C3\NC(=O)N(Cc4ccc(Cl)c(Cl)c4)C3=O)o2)cc1`, the “% Inhibition @ 10 uM” value was 0.147%.

Consider `Cc1nc2ccccc2n1CCC(=O)O`, for which the “% Inhibition @ 10 uM” value is listed as -4.78%.

On to `CCOc1ccc(NC(=O)CN2C(=O)S/C(=C/c3cccc(O)c3)C2=O)cc1`, for which the “% Inhibition @ 10 uM” value is on record as -3.92%.

For the molecule `COc1ccc(/C=C2\NC(=O)C(/C=N/Cc3ccccc3)=C2O)cc1`, the “% Inhibition @ 10 uM” value is given as -8.35%.

For `N#CCNC(=O)[C@@H](Cc1c[nH]c2ccccc12)NC(=O)OCc1ccccc1`, the “% Inhibition @ 10 uM” value was -3.34%.

Take `COc1ccc2nc3oc(C(=O)N4CCN(C(=O)c5ccco5)CC4)cc3cc2c1`: the “% Inhibition @ 10 uM” value came to 1.9%.
